Reference: the supplement of paper PMC9151546
Many values rest on one well or one pass, so single values are uncertain.

Key:
CHO-K1 [1] = experiment: relative survival (nuclei to bead ratio vs DMSO control) (% of vehicle control); higher = more surviving cells
CHO-K1 [2] = experiment: hypodiploid nuclei frequency (% of nucleated events); higher = more hypodiploid events (aneugenic)
CHO-K1 [3] = experiment: micronucleus frequency (% of nucleated events); higher = more micronuclei (genotoxic)
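Wherever hypodiploid nuclei frequency (% of nucleated events) is given: hypodiploid nuclei gated on a flow cytometer with 488 nm excitation after SYTOX Green staining, cultures at 37 °C, positive controls vinblastine without S9 and cyclophosphamide with S9.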
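Wherever micronucleus frequency (% of nucleated events) is given: cells lysed with nuclei stained by SYTOX Green, then micronucleus-gated events counted against nucleated events by flow cytometry with 488 nm excitation.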
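Wherever relative survival (nuclei to bead ratio vs DMSO control) is given: Lysed-cell nuclei stained with SYTOX Green and counted against counting beads by flow cytometry at 488 nm excitation, with vinblastine (no S9) and cyclophosphamide (plus S9) as positive controls.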

Cc1ccc(O)cc1 [p-Cresol]
Settings	hypodiploid nuclei frequency, CHO-K1 [2] [%]	micronucleus frequency, CHO-K1 [3] [%]	relative survival, CHO-K1 [1]
concentration: 4.48 (µM), S9 metabolic activation: with S9, exposure time: 3-4 hours	0.32	1.52	102
concentration: 4.48 (µM), S9 metabolic activation: without S9, exposure time: 24 hours	0.94	1.78	114
concentration: 5.6 (µM), S9 metabolic activation: with S9, exposure time: 3-4 hours	0.24	0.98	101
concentration: 5.6 (µM), S9 metabolic activation: without S9, exposure time: 24 hours	0.82	2.26	119
concentration: 7 (µM), S9 metabolic activation: with S9, exposure time: 3-4 hours	0.18	1.38	128
concentration: 7 (µM), S9 metabolic activation: without S9, exposure time: 24 hours	0.66	1.64	108
concentration: 8.75 (µM), S9 metabolic activation: with S9, exposure time: 3-4 hours	0.24	1.44	129
concentration: 8.75 (µM), S9 metabolic activation: without S9, exposure time: 24 hours	0.6	1.48	88.4
concentration: 10.9 (µM), S9 metabolic activation: with S9, exposure time: 3-4 hours	0.28	1.3	119
concentration: 10.9 (µM), S9 metabolic activation: without S9, exposure time: 24 hours	0.82	1.88	118
concentration: 13.7 (µM), S9 metabolic activation: with S9, exposure time: 3-4 hours	0.22	1.3	95
concentration: 13.7 (µM), S9 metabolic activation: without S9, exposure time: 24 hours	0.88	2.14	143
concentration: 17.1 (µM), S9 metabolic activation: with S9, exposure time: 3-4 hours	0.28	1.18	108
concentration: 17.1 (µM), S9 metabolic activation: without S9, exposure time: 24 hours	0.68	1.68	123
concentration: 21.4 (µM), S9 metabolic activation: with S9, exposure time: 3-4 hours	0.3	1.34	118
concentration: 21.4 (µM), S9 metabolic activation: without S9, exposure time: 24 hours	0.6	2.26	120
concentration: 26.7 (µM), S9 metabolic activation: with S9, exposure time: 3-4 hours	0.38	1.98	99.6
concentration: 26.7 (µM), S9 metabolic activation: without S9, exposure time: 24 hours	1	1.9	116
concentration: 33.4 (µM), S9 metabolic activation: with S9, exposure time: 3-4 hours	0.18	0.96	122
concentration: 33.4 (µM), S9 metabolic activation: without S9, exposure time: 24 hours	0.64	2.16	119
concentration: 41.7 (µM), S9 metabolic activation: with S9, exposure time: 3-4 hours	0.14	1.42	103
concentration: 41.7 (µM), S9 metabolic activation: without S9, exposure time: 24 hours	0.94	2.2	106
concentration: 52.2 (µM), S9 metabolic activation: with S9, exposure time: 3-4 hours	0.14	1.18	81.1
concentration: 52.2 (µM), S9 metabolic activation: without S9, exposure time: 24 hours	1.14	2.38	86.2
concentration: 65.2 (µM), S9 metabolic activation: with S9, exposure time: 3-4 hours	0.28	1.7	94.8
concentration: 65.2 (µM), S9 metabolic activation: without S9, exposure time: 24 hours	0.78	1.92	82.5
concentration: 81.5 (µM), S9 metabolic activation: with S9, exposure time: 3-4 hours	0.14	1.56	108
concentration: 81.5 (µM), S9 metabolic activation: without S9, exposure time: 24 hours	1.14	2.5	83.8
concentration: 102 (µM), S9 metabolic activation: with S9, exposure time: 3-4 hours	0.3	1.12	105
concentration: 102 (µM), S9 metabolic activation: without S9, exposure time: 24 hours	1.64	2.98	89.2
concentration: 127 (µM), S9 metabolic activation: with S9, exposure time: 3-4 hours	0.24	1.28	70.7
concentration: 127 (µM), S9 metabolic activation: without S9, exposure time: 24 hours	1.44	3.2	115
concentration: 159 (µM), S9 metabolic activation: with S9, exposure time: 3-4 hours	0.28	1.64	81
concentration: 159 (µM), S9 metabolic activation: without S9, exposure time: 24 hours	1.78	4.04	81.8
concentration: 199 (µM), S9 metabolic activation: with S9, exposure time: 3-4 hours	0.28	2.18	68.6
concentration: 199 (µM), S9 metabolic activation: without S9, exposure time: 24 hours	1.9	5.42	76.6
